Assay results reported in a collection of fitness landscapes (doi:10.1126/science.1257360).
Some of the results follow.

B1: PhoQ; a variant is named by its letters at X, in order, P23837 (parent)
chain: MKKLLRLFFPLSLRVRFLLATAAVVLVLSLAYGMVALIGYSVSFDKTTFRLLRGESNLFYTLAKWENNKLHVELPENIDKQSPTMTLIYDENGQLLWAQRDVPWLMKMIQPDWLKSNGFHEIEADVNDTSLLLSGDHSIQQQLQEVREDDDDAEMTHSVAVNVYPATSRMPKLTIVVVDTIPVELKSSYMVWSWFIYVLSANLLLVIPLLWVAAWWSLRPIEALAKEVRELEEHNRELLNPATTRELTSLVRNLNRLLKSERERYDKYRTTLTDLTHSLKTPLXXLQXXLRSLRSEKMSVSDAEPVMLEQISRISQQIGYYLHRASMRGGTLLSRELHPVAPLLDNLTSALNKVYQRKGVNISLDISPEISFVGEQNDFVEVMGNVLDNACKYCLEFVEISARQTDEHLYIVVEDDGPGIPLSKREVIFDRGQRVDTLRPGQGVGLAVAREITEQYEGKIVAGESMLGGARMEVIFGRQHSAPKDE

Variants of: B1
Test: enrichment ratio after two sorts for PhoP signalling (ratio (wild type AVST 3.29)); higher = more functional
Conditions: with PhoP (E. coli)

Row | Variant | enrichment ratio
1 | TPAS | ≤ 0.25
2 | REAC | ≤ 0.25
3 | EAFV | ≤ 0.25
4 | KVYD | ≤ 0.25
5 | MVTI | 1.79
6 | FHWF | ≤ 0.25
7 | GIAF | 4.76
8 | IDDE | ≤ 0.25
9 | SIRT | ≤ 0.25
10 | QDPK | ≤ 0.25
11 | MEDG | ≤ 0.25
12 | KTSV | ≤ 0.25
13 | SGWR | ≤ 0.25
14 | VAPI | ≤ 0.25
15 | QRCT | ≤ 0.25
16 | RNSP | ≤ 0.25
17 | TADD | ≤ 0.25
18 | WSLG | ≤ 0.25
19 | IYMS | ≤ 0.25
20 | MGKC | ≤ 0.25
21 | HHGM | ≤ 0.25
22 | DDFD | ≤ 0.25
23 | DMTP | ≤ 0.25
24 | VAEH | ≤ 0.25
25 | KALP | ≤ 0.25

Row | Variant | enrichment ratio
26 | RICH | ≤ 0.25
27 | SMLP | ≤ 0.25
28 | FELI | 10.8
29 | RWDL | ≤ 0.25
30 | NSLC | ≤ 0.25
31 | LWAR | ≤ 0.25
32 | VELC | 11
33 | IFHC | ≤ 0.25
34 | FLRK | ≤ 0.25
35 | PIKI | ≤ 0.25
36 | EQQS | ≤ 0.25
37 | MLWL | ≤ 0.25
38 | PENS | ≤ 0.25
39 | MMFE | ≤ 0.25
40 | IMNM | ≤ 0.25
41 | HNVT | ≤ 0.25
42 | EYRF | ≤ 0.25
43 | VFPL | ≤ 0.25
44 | HNGQ | ≤ 0.25
45 | YENE | ≤ 0.25
46 | TMFW | ≤ 0.25
47 | HDYI | ≤ 0.25
48 | PGHH | ≤ 0.25
49 | YHEF | ≤ 0.25
50 | DSYD | ≤ 0.25

Row | Variant | enrichment ratio
51 | FFEA | ≤ 0.25
52 | IDAT | ≤ 0.25
53 | RSYA | ≤ 0.25
54 | KKYQ | ≤ 0.25
55 | AKKF | ≤ 0.25
56 | IGEV | ≤ 0.25
57 | FDPG | ≤ 0.25
58 | LECS | 1.03
59 | SSPL | 1.2
60 | NIVY | ≤ 0.25
61 | FFKK | ≤ 0.25
62 | FAKP | ≤ 0.25
63 | YDLC | ≤ 0.25
64 | HWET | ≤ 0.25
65 | KVMN | ≤ 0.25
66 | IPVG | ≤ 0.25
67 | QHQV | ≤ 0.25
68 | AYTM | ≤ 0.25
69 | LSDN | ≤ 0.25
70 | NKLC | ≤ 0.25
71 | HSRK | ≤ 0.25
72 | EYDS | ≤ 0.25
73 | QAMY | ≤ 0.25
74 | VQEV | ≤ 0.25
75 | KLCI | ≤ 0.25

Row | Variant | enrichment ratio
76 | KPMI | ≤ 0.25
77 | TIEH | 27.9
78 | ALYW | ≤ 0.25
79 | YTML | 5.16
80 | PCSR | ≤ 0.25
81 | PNNR | ≤ 0.25
82 | NHLY | ≤ 0.25
83 | VWWT | ≤ 0.25
84 | GARD | ≤ 0.25
85 | LAFV | 0.348
86 | TVGF | 18.5
87 | TNLD | 0.487
88 | HNEG | ≤ 0.25
89 | VKMP | ≤ 0.25
90 | WSLY | 0.984
91 | WPLN | ≤ 0.25
92 | FEAI | ≤ 0.25
93 | RGSG | ≤ 0.25
94 | SPDN | ≤ 0.25
95 | RHKS | ≤ 0.25
96 | TGQI | 7.66
97 | PPNE | ≤ 0.25
98 | SSNF | 1.62
99 | NKRT | ≤ 0.25
100 | RDRG | ≤ 0.25

Row | Variant | enrichment ratio
101 | LSHW | 0.321
102 | KKTS | ≤ 0.25
103 | AGPS | ≤ 0.25
104 | WWLW | ≤ 0.25
105 | VITR | ≤ 0.25
106 | ACLY | 15.2
107 | SHHM | ≤ 0.25
108 | VDRY | ≤ 0.25
109 | RTYT | ≤ 0.25
110 | VPTK | ≤ 0.25
111 | WFSW | ≤ 0.25
112 | PAYS | ≤ 0.25
113 | FEGT | ≤ 0.25
114 | YVIG | ≤ 0.25
115 | TRQA | ≤ 0.25
116 | RIFT | ≤ 0.25
117 | GCIP | ≤ 0.25
118 | GFAK | ≤ 0.25
119 | PFKC | ≤ 0.25
120 | RFEL | ≤ 0.25
121 | SPIW | ≤ 0.25
122 | MTFH | 3.3
123 | QDRA | ≤ 0.25
124 | EHRV | ≤ 0.25
125 | FFCA | ≤ 0.25

Row | Variant | enrichment ratio
126 | EGSC | ≤ 0.25
127 | RPRN | ≤ 0.25
128 | KDCH | 2.1
129 | IYNC | ≤ 0.25
130 | VKIY | ≤ 0.25
131 | RMMI | ≤ 0.25
132 | RPMP | ≤ 0.25
133 | EDLQ | ≤ 0.25
134 | MEYT | 5.58
135 | RHKA | ≤ 0.25
136 | HCNF | ≤ 0.25
137 | QLGK | 3.11
138 | WFKH | ≤ 0.25
139 | HGDS | ≤ 0.25
140 | LNTN | ≤ 0.25
141 | RGIN | ≤ 0.25
142 | DGAI | ≤ 0.25
143 | VDDQ | ≤ 0.25
144 | HSQQ | ≤ 0.25
145 | FWVE | ≤ 0.25
146 | FKQI | ≤ 0.25
147 | IMDH | ≤ 0.25
148 | LCSC | ≤ 0.25
149 | WSDV | ≤ 0.25
150 | YMME | 0.355

Row | Variant | enrichment ratio
151 | TKTA | 7.23
152 | MPCT | ≤ 0.25
153 | MAHV | 1.31
154 | PGYP | ≤ 0.25
155 | SFGF | ≤ 0.25
156 | YYYS | ≤ 0.25
157 | KDAT | ≤ 0.25
158 | RPLM | ≤ 0.25
159 | VHHG | ≤ 0.25
160 | LSMH | ≤ 0.25
161 | GQFW | ≤ 0.25
162 | IAEE | ≤ 0.25
163 | GNSF | 1.14
164 | QGDR | ≤ 0.25
165 | HTYY | ≤ 0.25
166 | VPHP | ≤ 0.25
167 | WGVP | ≤ 0.25
168 | DLYF | ≤ 0.25
169 | NELW | ≤ 0.25
170 | LILS | ≤ 0.25
171 | STCT | 7.85
172 | HQDE | ≤ 0.25
173 | VACF | ≤ 0.25
174 | QRRP | ≤ 0.25
175 | WQYL | ≤ 0.25

Row | Variant | enrichment ratio
176 | YAPE | ≤ 0.25
177 | RISL | ≤ 0.25
178 | VYIQ | ≤ 0.25
179 | HTMC | ≤ 0.25
180 | QTVI | ≤ 0.25
181 | GVGL | 1.14
182 | GYRI | ≤ 0.25
183 | KVKI | ≤ 0.25
184 | YGEP | ≤ 0.25
185 | ACIT | ≤ 0.25
186 | NHTQ | ≤ 0.25
187 | PLYM | ≤ 0.25
188 | VMRI | ≤ 0.25
189 | VVSS | ≤ 0.25
190 | WLKY | ≤ 0.25
191 | LWIK | ≤ 0.25
192 | GISL | 5.24
193 | FKWI | ≤ 0.25
194 | DICW | ≤ 0.25
195 | NTHS | ≤ 0.25
